# PubChem BioAssay AID1645882 (National Center for Advancing Translational Sciences (NCATS), 2021)
# “And” between values parts separate entries of the source, which are not always exact repeats. Equal values may be shown once. Out of some 16,000 compounds screened, about 120 (0.75%) were called active. Roughly 4% stayed inconclusive and do not appear here. The call rests on the fitted dose curve; in most records, active means well fitted inhibition curve with a large enough effect; inconclusive means small, poorly fitted or top-dose-only effect; inactive means no such curve, though single readings can be large or run the other way. Some of the results follow. Some compounds were tested as several samples or in several runs, with calls that do not always agree.
# Target: Rap guanine nucleotide exchange factor 3 (Homo sapiens) (UniProt O95398)
# Assay: Validation qHTS for antagonist of cAMP-regulated guanine nucleotide exchange factor 3 (EPAC1); further: nearly all actives have a fitted effect of over 75% in size;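 on activity change, negative = inhibition: plate controls were DMSO for no effect and ATA control for full effect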
# Settings: EPAC1 Rap1B-BODIPY-GDP exchange, fluorescence; series mostly up to 150 µM; activity change, negative = inhibition: at the top concentration
# Summary of the method: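 Nucleotide exchange followed as fluorescence loss when BODIPY-GDP leaves Rap1B (480 nm excitation, 540 nm emission), read at 5 min intervals over 30 min. Reaction: 100 nM EPAC1, 250 nM RAP1B-BODIPY-GDP, 50 uM GDP; ATA and DMSO define normalization.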
# Potency means the concentration at half of the fitted maximal effect.
# Chain of UniProt O95398 (O95398 whole entry, looked up): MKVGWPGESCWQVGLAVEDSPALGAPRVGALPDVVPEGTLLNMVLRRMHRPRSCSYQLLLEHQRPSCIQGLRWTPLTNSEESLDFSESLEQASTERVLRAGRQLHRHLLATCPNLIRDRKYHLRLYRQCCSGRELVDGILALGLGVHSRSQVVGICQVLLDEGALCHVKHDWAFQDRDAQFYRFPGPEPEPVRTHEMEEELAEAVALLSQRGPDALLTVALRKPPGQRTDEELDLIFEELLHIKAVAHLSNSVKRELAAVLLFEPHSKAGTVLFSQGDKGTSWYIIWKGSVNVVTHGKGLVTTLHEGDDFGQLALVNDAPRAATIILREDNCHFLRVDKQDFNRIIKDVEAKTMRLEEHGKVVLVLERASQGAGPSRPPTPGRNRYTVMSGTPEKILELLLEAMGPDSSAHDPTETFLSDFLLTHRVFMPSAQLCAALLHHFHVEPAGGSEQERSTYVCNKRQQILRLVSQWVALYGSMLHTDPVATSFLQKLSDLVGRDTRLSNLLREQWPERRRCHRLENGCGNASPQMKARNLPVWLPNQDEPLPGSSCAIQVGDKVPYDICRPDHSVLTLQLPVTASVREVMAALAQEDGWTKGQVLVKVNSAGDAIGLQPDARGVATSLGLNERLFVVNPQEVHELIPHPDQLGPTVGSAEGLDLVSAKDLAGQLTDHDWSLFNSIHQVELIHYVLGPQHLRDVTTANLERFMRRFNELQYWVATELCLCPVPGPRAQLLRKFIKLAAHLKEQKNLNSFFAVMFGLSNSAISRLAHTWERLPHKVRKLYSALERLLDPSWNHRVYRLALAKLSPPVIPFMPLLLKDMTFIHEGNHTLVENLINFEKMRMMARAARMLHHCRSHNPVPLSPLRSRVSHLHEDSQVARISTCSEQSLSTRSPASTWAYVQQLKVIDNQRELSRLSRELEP
Structure (SMILES),"activity change, negative = inhibition",Potency
O=c1c(-c2ccc(F)cc2)nc2cnc(N3CCOCC3)nc2n1Cc1ccc(F)cc1,inactive: 1.33%,
CCCCC[C@H](CC(=O)NO)C(=O)N[C@H](C(=O)N1CCC[C@H]1CO)C(C)C,inactive: 5.14% [at 75.8 µM],
Cc1nn(C)cc1CN1CCOc2ccc(C(C)(O)COc3ccccc3)cc2C1 (centres undefined),inactive: 2.73%,
COc1ccccc1CN1CCOc2ccc(CN3CCC(Oc4cccnc4)CC3)cc2C1,inactive: 9.49%,
Cc1ccc(O)c([C@H](CCN(C(C)C)C(C)C)c2ccccc2)c1,inactive: 11.2%,
Cc1nc(N=Nc2ccc(S(=O)(=O)O)cc2S(=O)(=O)O)c(COP(=O)(O)O)c(C=O)c1O,,inactive and active: 12.6 µM
COc1cccc(Cn2c(=O)c(-c3ccc(F)cc3)nc3cnc(N4CCOCC4)nc32)c1,inactive: -10.1%,
COc1ccc2[nH]cc(CCNc3ncncc3-c3ccc4c(c3)OCO4)c2c1,inactive: -3.46%,
CNCCC(Oc1ccccc1C)c1ccccc1 (centres undefined),inactive: 13.4% [at 75.8 µM],
COCCNc1ccnc(-c2ccccc2CN(C)C)n1,inactive: 30.5%,
COc1cccc(Cn2c(=O)c(-c3cccc(F)c3)nc3cncnc32)c1,inactive: -7.05%,
COc1cc2c(cc1OC)C1N(CC2)C(=O)CCC12C(=O)CCCC2=O (centres undefined),inactive: 6.53%,
CS(=O)(=O)Nc1cccc(-c2nccc(Nc3ccc(F)cc3)n2)c1,inactive: -19.2%,
Cc1cc(C)c2c(n1)NCCC2,inactive: 25%,
CCCCC1CN(CCNC(=O)c2ccccn2)Cc2ccccc2O1 (centres undefined),inactive: 5.49%,
Cc1cccc(CNc2nc(-c3cccnc3)nc3ccccc23)c1,inactive: 18.7%,
CCCN1CCC(=O)N([C@H](CSc2ccccc2)Cc2ccccc2)CC1,inactive: 14.1%,
COc1ccccc1C1CN(CCNC(=O)c2ccc3c(c2)OCCO3)Cc2ccccc2O1 (centres undefined),inactive: -11.2%,
O=C(O)c1cc(=O)c2c(OCC(O)COc3cccc4oc(C(=O)O)cc(=O)c34)cccc2o1,inactive,
O=c1c(O)c(-c2ccccc2)oc2cc(O)cc(O)c12,inactive: 6.31%,
c1ccc(CNc2ncnc3ccc(-c4ccc5c(c4)OCO5)cc23)cc1,inactive: -19.8%,
N=S(=O)(O)Cc1noc2ccccc12,inactive: 0.453% [at 75.8 µM],
Cc1cnc(CNc2nc(-c3ccoc3)nc3ccccc23)cn1,inactive: 7.6%,
COc1ccnc(CS(=O)c2nc3cc(OC(F)F)ccc3[nH]2)c1OC (centres undefined),inactive: 35.8%,
COc1ccc(/C=C\C(=O)Nc2ccccc2C(=O)O)cc1OC,inactive: 7.89%,

Structure (SMILES),"activity change, negative = inhibition",Potency
CC(=O)c1ccc2c(c1)N(CCCN1CCN(CCO)CC1)c1ccccc1S2,inactive: 22.2%,
COc1cc2oc(-c3ccccc3)cc(=O)c2cc1O,inactive: 10.9%,
O=C(Oc1ccccc1)N1CCC2(CC1)CCN(c1ncccn1)CC2,inactive: 7.72%,
Cc1c(C(=O)NCC2CC2)sc2ncnc(NCCN3CCCCC3)c12,inactive: 14.8%,
COc1cccc(C2(CC(=O)N3CCN(c4ccccc4O)CC3)CC(=O)N(C3CCCC3)C2=O)c1 (centres undefined),inactive: -0.23%,
CC(=O)Oc1ccc(/C=C/C(=O)CC2OC(Oc3cc(OC(C)=O)c4c(c3)O[C@@H](c3ccc(OC(C)=O)cc3)CC4=O)C(OC(C)=O)C(OC(C)=O)C2OC(C)=O)cc1 (some centres undefined),inactive: 10.7%,
CNC(=O)[C@@H]1C[C@H](Sc2nc3ccccc3[nH]2)CN1Cc1ccccc1C(F)(F)F,inactive: -8.68%,
COC(=O)C1CCCCN1Cc1ccc2c(c1)CN(Cc1cnn(-c3ccccc3)c1)CCO2 (centres undefined),inactive: -0.462%,
O=C1CCc2c(ccc3ccccc23)O1,inactive,
COc1ccccc1C1CN(CCNC(=O)C2=CCCC2)Cc2ccccc2O1 (centres undefined),inactive: -11.4%,
Cn1c(=O)c2c(ncn2C)n(C)c1=O,inactive,
Cc1cnc(C)c(-c2ccc(F)c3c2OC(CNC(=O)Cc2c(C)[nH]c4ccccc24)C3)n1 (centres undefined),inactive: 8.76%,
CN(C)C(=O)c1ccc(-c2cncnc2NCc2ccccc2)cc1,inactive: 5.71%,
COC(=O)C[C@H]1c2cc(F)ccc2S(=O)(=O)N1C1CC1,inactive: 12.6%,
O=C1c2ccccc2C(Cc2ccncc2)(Cc2ccncc2)c2ccccc21,inactive: 11.6%,
CN1CCCC(CN(C)C(=O)c2cnn(-c3nccc(-c4ccccc4C(F)(F)F)n3)c2C2CC2)C1 (centres undefined),inactive: 8.77%,
O=C(c1csnn1)N1CCC[C@@]2(CCN(C(c3ccccc3)c3ccccc3)C2)C1,inactive: -2.17%,
O=C(c1cccnc1)C1CCCN(Cc2ccc3c(c2)CN(C(=O)c2cn4ccccc4n2)CCO3)C1 (centres undefined),inactive: 4.39%,
CN1C[C@H](C(=O)N[C@]2(C)O[C@@]3(O)[C@H]4CCCN4C(=O)[C@H](Cc4ccccc4)N3C2=O)C[C@H]2c3cccc4[nH]cc(c34)C[C@@H]21,inactive: -5.34%,
O=C(/C=C/c1ccccc1)c1ccc(O)cc1O,inactive: -11%,
Cc1nc2cnc(Oc3cccc(Cl)c3)nc2n(C2CC2)c1=O,inactive: -5.94%,
CN1CC(=O)N2C(Cc3c([nH]c4ccccc34)[C@H]2c2ccc3c(c2)OCO3)C1=O (some centres undefined),inactive: 19.7%,
COc1ccc(CCNC(=O)c2cnn(-c3nccc(-c4ccco4)n3)c2C)cc1,inactive: 14.1%,
CCN1CCN(c2cc(-c3ccc(F)cc3)c3c(n2)CCCCCC3)CC1,inactive: -28.3%,
CCNc1ncc2nc(CCc3ccccc3)c(=O)n(CCOC)c2n1,inactive: 14.7%,

Structure (SMILES),"activity change, negative = inhibition",Potency
Cc1ncc2c(c1CNC(=O)c1ccc3c(c1)OCO3)CCN(C(=O)c1noc3c1CCCC3)C2,inactive: 4.86%,
CN(C)Cc1ccccc1-c1cc(NC2CC2)ncn1,inactive: 9.23%,
O=S(=O)(c1ccccc1)N1CCC[C@@]2(CCN(c3cccc(-c4ccccc4)c3)C2)C1,inactive: 16.6%,
CC(C)(C)NCC(O)c1ccc(O)c(CO)c1 (centres undefined),inactive,
Cc1cccnc1-c1cccc2c1OC(CNC(=O)C(=O)c1ccccc1)C2 (centres undefined),inactive: -3.31%,
CCOC(=O)C[C@H]1c2ccccc2S(=O)(=O)N1Cc1cc(OC)c(OC)c(OC)c1,inactive: 8.27%,
CN1CCCC(CNC(=O)c2cnn(-c3ncc4c(n3)-c3ccccc3CC4)c2C2CC2)C1 (centres undefined),inactive: 10.9%,
CNC1C(O)C(O[C@H]2C(O)[C@@H](OC3OC(CN)=CCC3N)[C@H](N)C[C@@H]2N)OC[C@]1(C)O (some centres undefined),inactive: 5.95%,
Cc1nc2cnc(Oc3ccccc3)nc2n(-c2ccccc2)c1=O,inactive: 9.27%,
O=C(C[n+]1ccccc1Br)c1ccc(-c2ccccc2)cc1,inactive: 0.0962%,
COc1cc2c(cc1OC)C(c1c[nH]c3ccccc13)NCC2 (centres undefined),inactive: 10.7%,
CCCCC[C@H](O)CC(=O)CCc1ccc(O)c(OC)c1,inactive,
N#Cc1cccc(-c2ccc3ncnc(NC4CCNCC4)c3c2)c1,inactive: -2.51%,
CCC(=O)N[C@@H]1c2ccccc2C2(CCN(Cc3[nH]c4c(Cl)cccc4c3C)CC2)[C@H]1OC,inactive: 4.26%,
COc1cc(/C(=C/c2ccccc2)c2ccccc2)c2c(c1)oc1ccccc12,inactive: 4.36%,
CCCCCCCC/C=C\CCCCCCCC(=O)O,inactive: 12.9%,
COC(=O)c1cc(CNC(=O)c2ccc(N(C)C)cc2)cc(NC(=O)c2ccccc2Cl)c1,inactive: 5.97%,
O=C(CSc1ccncc1)NCC1Cc2cccc(-c3cncnc3)c2O1 (centres undefined),inactive: 4.41%,
COc1ccc(O)c(CN2CCC3(CC2)c2ccccc2[C@@H](NC(=O)c2cccc(F)c2)[C@@H]3OC)c1,inactive: -7.6%,
Cn1c(=O)c2[nH]c(Br)nc2n(C)c1=O,inactive: 14.8%,
CCCCC[C@H](O)/C=C/[C@@H]1[C@H]2C/C(=C/CCCC(=O)O)O[C@H]2C[C@H]1O,inactive: 7.63%,
NC(=O)[C@@H]1CCCN1C(=O)[C@H](Cc1cnc[nH]1)NC(=O)[C@@H]1CCC(=O)N1,inactive: 13.6%,
COc1ncc2nc(-c3ccccc3)c(=O)n(-c3ccccc3)c2n1,inactive: 11.2%,
O=C(c1cccc(F)c1)N1CCC2(CC1)CN(c1ccc(-c3ccccc3)cc1)C2,inactive: 0.162%,
COc1ccc(C2OC3C(CO)OC(n4cnc5c(=O)[nH]c(N)nc54)C3O2)cc1 (centres undefined),inactive: 9.03%,

Structure (SMILES),"activity change, negative = inhibition",Potency
C=CCOc1cc(Cl)ccc1C(=O)NCCN(CC)CC,inactive: 21%,
O=C(N[C@H]1CCC(=O)N([C@H](CSc2ccc(Br)cc2)Cc2ccccc2)CC1)OCc1ccccc1,inactive: -17.8%,
O=C(COCCOCCOCC(=O)Nc1c(I)cc(I)c(C(=O)O)c1I)Nc1c(I)cc(I)c(C(=O)O)c1I,inactive: -2.57%,
CN1CCC(N(Cc2cccs2)c2ccccc2)CC1,inactive: 29.5%,
COC1=C(OC)C(=O)C(C/C=C(\C)CC/C=C(\C)CC/C=C(\C)CC/C=C(\C)CC/C=C(\C)CC/C=C(\C)CC/C=C(\C)CC/C=C(\C)CC/C=C(\C)CCC=C(C)C)=C(C)C1=O,inactive: 11.6%,
O=C(O)c1ccccc1Nc1cccc(OCc2ccc3ccccc3n2)c1,inactive: 11.3% [at 75.8 µM],
CC(=O)c1ccc(C(=O)NCc2nc(-c3ccccc3NC(=O)c3cc(C)oc3C)oc2C)cc1,inactive: 1.98%,
CN(C)CC/C=C1/c2ccccc2COc2ccccc21,inactive: 25.8%,
CC(=O)NCCc1c(Cc2ccccc2)[nH]c2ccccc12,inactive,
c1cncc(-c2ccc3ncnc(NCCN4CCOCC4)c3c2)c1,inactive: 2.97%,
COc1ccc2cc1Oc1ccc(cc1)C[C@H]1c3c(cc4c(c3Oc3cc5c(cc3OC)CCN(C)[C@@H]5C2)OCO4)CCN1C,inactive: 10.1%,
COCCNc1ncncc1-c1c(C)noc1C,inactive: 19.7%,
COc1cc(C(O)C(=O)O)ccc1O (centres undefined),inactive,
Cc1ccc(C(=O)N(Cc2cc3cc4c(cc3nc2N2CCOCC2)CCC4)CC2CCCO2)cc1 (centres undefined),inactive: -21%,
Nn1cc(Br)c(=O)[nH]c1=O,inactive: 13.7%,
O=C(O)C(=O)Nc1cccc(C2=NN=N[N]2)c1,inactive: 32.5%,
COc1cccc(Cn2c(=O)cnc3cnc(Oc4ccccc4)nc32)c1,inactive: 5.19%,
CCNc1ncc2nc(-c3cn(C)c4ccccc34)c(=O)n(Cc3cccs3)c2n1,inactive: 13%,
O=C(c1cnn(-c2nccc(-c3ccccc3C(F)(F)F)n2)c1C1CC1)N1CCN(CCO)CC1,inactive: 17.5%,
C=C1CCC2C(C)(CO)C(O)CCC2(C)C1C/C=C1\C(=O)OCC1O (centres undefined),inactive: 12.9%,
COc1cc(=O)n2c(c1C(=O)NC(C)c1ccco1)CCN(C(=O)c1cccc(C)c1C)CC2 (centres undefined),inactive: 1.1%,
CCOC(=O)c1ccc(O)cc1,inactive: 22.8%,
COc1cccc(CNC(=O)c2c(OC)cc(=O)n3c2CCN(C(=O)c2ccc(Cl)cc2)CC3)c1,inactive: 12.7%,
COc1cccc(Cn2c(=O)c(-c3cn(C)c4ccccc34)nc3cnc(N4CCNCC4)nc32)c1,inactive: -26.1%,
